Measured values published in patent US20260042854A1, “ANTI-GLP-1R ANTIBODIES AND USES THEREOF” (SCIWIND BIOSCIENCES USA CO., LTD, priority 2022, published 2026).

Target: T1, hGLP-1R on the cell membrane (HEK293 cells overexpressing hGLP-1R) (Homo sapiens, UniProt P43220)
T1 construct: antibody to the full-length hGLP-1R on the cell membrane; host or cells: HEK293
Experiment: Flow cytometry binding to hGLP-1R on HEK293 cell membrane
Settings: flow cytometry (FACS)
Experimental: HEK293 cells overexpressing hGLP-1R (GenScript Biotech Corporation) were washed with FACS buffer, then added with 50 μL antibody (P16288, P16289, or IgG1 (Sanyou Biopharmaceuticals (Shanghai) Co., Ltd.) as negative control) of 137.0, 45.7, 15.2, 5.1, 1.69, 0.56, 0.19 or 0.018 nM and incubated at 4° C. for 60 minutes. After centrifugation and washing, the cells were added with PE-labeled anti-human IgG Fc (Abcam, ab98596), and incubated at 4° C. for 30 minutes. After centrifugation and washing, the cells were re-suspended into a FACS buffer. The mean fluorescence intensities (MFI) were measured with flow cytometry. The data were analyzed by four-parameter curve fitting with GraphPad Prism 9, and EC50 was calculated.

T1 sequence (P43220 24-463): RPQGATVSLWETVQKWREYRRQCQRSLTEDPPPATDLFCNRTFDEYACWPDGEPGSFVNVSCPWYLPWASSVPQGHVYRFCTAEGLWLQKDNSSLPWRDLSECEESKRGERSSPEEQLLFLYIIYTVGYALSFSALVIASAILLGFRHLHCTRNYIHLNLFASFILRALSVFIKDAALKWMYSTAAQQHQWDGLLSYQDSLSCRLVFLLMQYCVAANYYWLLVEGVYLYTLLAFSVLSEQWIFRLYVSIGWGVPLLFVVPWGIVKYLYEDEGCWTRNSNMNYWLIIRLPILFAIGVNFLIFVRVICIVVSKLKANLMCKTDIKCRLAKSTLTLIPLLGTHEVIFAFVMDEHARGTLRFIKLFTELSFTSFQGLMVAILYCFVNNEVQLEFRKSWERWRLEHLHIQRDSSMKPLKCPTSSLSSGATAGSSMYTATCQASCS

B1: P16288: Fully human anti-GLP-1R IgG4 (S228P) antibody; heavy chain SEQ ID NO: 9, light chain SEQ ID NO: 10 (antibody)
heavy: QVQLVQSGAEMKKPGASVKVSCKTSGYRFSTYVISWVRQTPGQGLEWMGWISPYTGDIDYAQKFQGRVTITADESTSTAYMELSRLRSDDTAVYYCARERDGYNFPGMDVWGQGTTVTVSSASTKGPSVFPLAPCSRSTSESTAALGCLVKDYFPEPVTVSWNSGALTSGVHTFPAVLQSSGLYSLSSVVTVPSSSLGTKTYTCNVDHKPSNTKVDKRV[human IgG4 Fc with S228P (EU numbers) not listed]
light: DIQLTQSPSFLSASVGDRVTITCRASQGISSYLAWYQQKPGRAPKLLIYSASTLQRGVPSRFSGSGSGTDFTLTISSLQPEDYATYYCQQADSFPPSFGPGTKVDIKRTVAAPSVFIFPPSDEQLKSGTASVVCLLNNFYPREAKVQWKVDNALQSGNSQESVTEQDSKDSTYSLSSTLTLSKADYEKHKVYACEVTHQGLSSPVTKSFNRGEC
B1 was tested, and the “binding to hGLP-1R on the cell membrane (in words)” value was “bound strongly; also recorded: binds strongly”.

Entries after “also recorded” stand apart in the source; their conditions may differ.
